# Assay results: ChEMBL document CHEMBL4888484, “Replenishing the malaria drug discovery pipeline: Screening and hit evaluation of the MMV Hit Generation Library 1 (HGL1) against asexual blood stage Plasmodium falciparum ,using a nano luciferase reporter read-out” (2022)
# Out of some 150,000 compounds screened, about 540 (0.36%) showed an effect of 50% or more. This is one part of the list.
# Tested on: Plasmodium falciparum
# Assay: Primary screen in NF54 nanoGlo assay, in single point, at 2uM, 72h; a lower Z score goes with more inhibition
# Assay type: functional, Erythrocyte
# Settings: timepoint 72 hour
SMILES,% Inhibition,Z score
Oc1cccc2c1C[C@@H](NCc1ccncc1Cl)C2,-5%,0.48
Cc1cccc(CNC(=O)c2cc(C)[nH]c(=O)c2)n1,-6%,1.17
Cc1cc(Cn2cc(C(c3ccccc3)c3ccccc3)nn2)no1,21%,0.53
CN(C[C@H]1CCCCO1)C(=O)c1ccc2nc(-c3ccc(F)cc3)cn2c1,-10%,1.34
O=C(Nc1ccc2c(c1)OCO2)c1csc(C2CC2)n1,0%,-0.06
CCN1CCN(C(=O)Cn2c(C)cc(=O)n3nc(-c4cccc(C)c4)nc23)CC1,-4%,0.51
CCc1nn(C)c(Cl)c1CN1CCN(c2ccnc3nncn23)CC1,-4%,0.4
CC(C)c1nn(C)c(Cl)c1C(=O)NC[C@@H](CO)C1CCCCC1,-14%,2.45
CO[C@@H](C)c1nc(Cc2noc(Cc3ccc(O)cc3)n2)cs1,-13%,1.62
CC(C)(C)OC(=O)[C@@H]1CCCCN1Cc1cn(CCN2CCCC2=O)nn1,-4%,0.62
c1ccc2nc(Nc3cn[nH]c3)cnc2c1,-10%,1.6
CCN(C(=O)Cn1c(=O)n(-c2cc(C)cc(C)c2)c(=O)c2ccccc21)c1cccc(C)c1,30%,-3.42
CCCc1nccn1-c1cccc(-c2nnc(C)s2)c1,-8%,1.62
O=C(CCn1cccn1)NC1CNCCC1c1ccc(F)c(F)c1 (stereo not drawn),-6%,0.84
COc1ccccc1OCCC(=O)N1CC2CN(Cc3ccccc3)CC2C1 (stereo not drawn),-3%,0.37
C[C@H](OCn1cc(NCCc2ccccc2)c(=O)[nH]c1=O)c1ccccc1,2%,-0.35
COCCc1nc2c(c(N3CCN(c4ccccn4)CC3)n1)CCOCC2,-19%,1.82
CC(C)C[C@H]1CN(C)CCN1C(=O)c1ncc[nH]1,-2%,0.16
COc1ccccc1CCC(=O)N1CCC[C@H](c2[nH]ccc2C(N)=O)C1,-1%,0.14
Nc1nc(CCC(=O)NCCc2ccc(S(N)(=O)=O)cc2)cs1,-26%,2.8
COc1ccc(CN2CCC(O)(CO)CC2)cc1Cn1cccn1,4%,-0.82
Cc1oc(-c2ccccc2)nc1CNS(=O)(=O)c1ccc(Cl)cc1,-1%,0.08
COc1ccc(C=C(C)c2cnccn2)cc1C,-10%,1.38
CCOCCCN1C(=O)c2cc3ccc(OC)cc3n2C[C@@]1(C)C(=O)NC1CCCCCCC1,7%,-1.14
